In the supplement of paper PMC12217912:
The other results are listed elsewhere or left out. The full chains were built here from the parent and the listed change. Values near 0.05 are background.

B1: TEV protease; numbered along this chain (parent)
chain: MGESLFKGPRDYNPISSSICHLTNESDGHTTSLYGIGFGPFIITNKHLFRRNNGTLVVQSLHGVFKVKDTTTLQQHLVDGRDMIIIRMPKDFPPFPQKLKFREPQREERICLVTTNFQTKSMSSMVSDTSCTFPSGDGIFWKHWIQTKDGQCGSPLVSTRDGFIVGIHSASNFTNTNNYFTSVPKNFMELLTNQEAQQWVSGWRLNADSVLWGGHKVFMVKPEEPFQPVKEATQL

Variants of: B1
Test: raw area under fraction-flipped curve 0-4 h after induction (AUC4h, not background-subtracted), DNA-recorder readout of cleavage of the substrate (dimensionless); higher = more cleavage of the substrate by the protease variant
Details: temperature: 34 °C; time window: 0-4 h after rhamnose induction
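Further: Bxb1 expression induced with 0.2% (w/v) L-rhamnose at OD600 near 0.5, cultures sampled hourly, flipped fraction per protease–substrate barcode pair counted by paired-end Illumina sequencing.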

Row | Variant | area with substrate ENLYEQS | area with substrate ENLYGQS | area with substrate ENLYIQS | area with substrate ENLYKQS | area with substrate ENLYLQS | area with substrate ENLYPQS | area with substrate ENLYQQS | area with substrate ENLYRQS | area with substrate ENLYTQS | area with substrate ENLYVQS | area with substrate ENLYWQS | area with substrate ENLYHQS | area with substrate ENLYMQS | area with substrate ENLYNQS | area with substrate ENLYSQS | area with substrate ENLYYQS
1 | MGESLFKGPRDYNPISSSICHLTNESDGHTTSLYGIGFGPFIITNKHLFRRNNGTLVVQSLHGVFKVKDTTTLQQKLVDGRDMIIIRMPKDFPPFPQKLKFREPQREERICLVTTNFQTKSMSSMVSDTSCTFPSGDGIFWKHWIQTKDGQCGSPLVSTRDGFIVGIHSASNFTNTNNYFTSVPKNFMELLTNQEAQQWVSGWRLNADSVLWGGHKVFMVKPEEPFQPVKEATQL [H76K] | 0.0592 | 0.0673 | 0.0842 | 0.021 | 0.0691 | 0.0678 | 0.0642 | 0.0636 | 0.0687 | 0.0743 | 0.0742 | – | – | – | – | –
2 | MGESLFKGPRDYNPISSSICHLTNESDGHTTSLYGIGFGPFIITNKHLFRRLNGTLVVQSLHGVFKVKDTTTLQQHLVDGRDMIIIRMPKDFPPFPQKLKFREPQREERICLVTTNFQTKSMSSMVSDTSCTFPSGDGIFWKHWIQTKDGQCGSPLVSTRDGFIVGIHSASNFTNTNNYFTSVPKNFMELLTNQEAQQWVSGWRLNADSVLWGGHKVFMVKPEEPFQPVKEATQL [N52L] | 0.0623 | – | – | 0.0604 | 0.0733 | 0.0562 | 0.0719 | – | 0.0611 | 0.0809 | 0.0681 | 0.0577 | 0.0477 | 0.0632 | 0.075 | –
3 | MGESLFKGPRDYNPISSSICHLTNESDGHTTSLYGIGFGPFIITNKHLFRRNNGTLVVQSLHGVFKVKDTTTLQQHLVDGRDMIIIRMPKDFPPFPQKLKFREPQREEVICLVTTNFQTKSMSSMVSDTSCTFPSGDGIFWKHWIQTKDGQCGSPLVSTRDGFIVGIHSASNFTNTNNYFTSVPKNFMELLTNQEAQQWVSGWRLNADSVLWGGHKVFMVKPEEPFQPVKEATQL [R109V] | 0.0657 | 0.0533 | 0.111 | 0.0569 | – | 0.104 | 0.0595 | 0.0657 | – | 0.0972 | 0.0821 | 0.0616 | 0.0801 | 0.0722 | 0.0708 | 0.0856
4 | MGESLFKGPRDYNPISSSICHLTNESDGHTTSLYGIGFGPFIITNKHLFRRNNGTLVVQSLHGVFKVKKTTTLQQHLVDGRDMIIIRMPKDFPPFPQKLKFREPQREERICLVTTNFQTKSMSSMVSDTSCTFPSGDGIFWKHWIQTKDGQCGSPLVSTRDGFIVGIHSASNFTNTNNYFTSVPKNFMELLTNQEAQQWVSGWRLNADSVLWGGHKVFMVKPEEPFQPVKEATQL [D69K] | 0.059 | 0.0647 | 0.0889 | – | – | – | – | 0.0631 | – | – | – | 0.0634 | 0.0616 | – | – | –
5 | MGESLPKGPRDYNPISSSICHLTNESDGHTTSLYGIGFGPFIITNKHLFRRNNGTLVVQSLHGVFKVKDTTTLQQHLVDGRDMIIIRMPKDFPPFPQKLKFREPQREERICLVTTNFQTKSMSSMVSDTSCTFPSGDGIFWKHWIQTKDGQCGSPLVSTRDGFIVGIHSASNFTNTNNYFTSVPKNFMELLTNQEAQQWVSGWRLNADSVLWGGHKVFMVKPEEPFQPVKEATQL [F6P] | 0.055 | – | 0.0969 | – | – | 0.0762 | 0.0621 | – | – | – | 0.095 | 0.0604 | – | – | 0.0534 | 0.0534
6 | MGESLIKGPRDYNPISSSICHLTNESDGHTTSLYGIGFGPFIITNKHLFRRNNGTLVVQSLHGVFKVKDTTTLQQHLVDGRDMIIIRMPKDFPPFPQKLKFREPQREERICLVTTNFQTKSMSSMVSDTSCTFPSGDGIFWKHWIQTKDGQCGSPLVSTRDGFIVGIHSASNFTNTNNYFTSVPKNFMELLTNQEAQQWVSGWRLNADSVLWGGHKVFMVKPEEPFQPVKEATQL [F6I] | 0.0542 | – | – | 0.0628 | – | 0.0808 | – | – | – | – | – | – | – | 0.0642 | – | –
7 | MGESLFKGPRDYNPISSSICHLTNESDGHTTSLYGIGFGPFIITNKHLFRRNNGTLVVQSLHGVFKVKDTTTLQQHLVDGRDMIILRMPKDFPPFPQKLKFREPQREERICLVTTNFQTKSMSSMVSDTSCTFPSGDGIFWKHWIQTKDGQCGSPLVSTRDGFIVGIHSASNFTNTNNYFTSVPKNFMELLTNQEAQQWVSGWRLNADSVLWGGHKVFMVKPEEPFQPVKEATQL [I86L] | 0.0624 | – | – | – | – | – | 0.0552 | – | 0.0896 | 0.13 | – | – | 0.0778 | 0.065 | – | –
8 | MGESLFKGPRDYNPISSSICHLTNESDGHTTSLYGIGFGPFIITNKHLFRRNNGALVVQSLHGVFKVKDTTTLQQHLVDGRDMIIIRMPKDFPPFPQKLKFREPQREERICLVTTNFQTKSMSSMVSDTSCTFPSGDGIFWKHWIQTKDGQCGSPLVSTRDGFIVGIHSASNFTNTNNYFTSVPKNFMELLTNQEAQQWVSGWRLNADSVLWGGHKVFMVKPEEPFQPVKEATQL [T55A] | 0.0686 | 0.0512 | 0.109 | – | – | 0.0675 | 0.0668 | – | 0.0794 | – | 0.0611 | 0.0562 | 0.0864 | 0.0705 | 0.0678 | –
9 | MGESLFKGPRDYNPISSSICHLTNESDGHTTSLYGIGFGPFIITNKHLFRRNNGTLVNQSLHGVFKVKDTTTLQQHLVDGRDMIIIRMPKDFPPFPQKLKFREPQREERICLVTTNFQTKSMSSMVSDTSCTFPSGDGIFWKHWIQTKDGQCGSPLVSTRDGFIVGIHSASNFTNTNNYFTSVPKNFMELLTNQEAQQWVSGWRLNADSVLWGGHKVFMVKPEEPFQPVKEATQL [V58N] | 0.0669 | – | 0.0655 | 0.0429 | – | – | 0.0526 | – | – | – | – | 0.0503 | – | 0.0492 | 0.0386 | –
10 | MGESLFKGPRDYNPISSSICHLTNESDGHTTSLYGIGFGPFIITNKHLFRRNNGTLVVQSLHGVFKVKDTTTLQQHLVDGRDMIIIRMPKDFPPFPQKLKFREPQREERICLVTTNFQTKSMSLMVSDTSCTFPSGDGIFWKHWIQTKDGQCGSPLVSTRDGFIVGIHSASNFTNTNNYFTSVPKNFMELLTNQEAQQWVSGWRLNADSVLWGGHKVFMVKPEEPFQPVKEATQL [S124L] | 0.0715 | 0.0692 | – | 0.0607 | – | 0.071 | – | 0.0604 | 0.0812 | – | – | 0.086 | 0.0798 | 0.0557 | – | –
